The list shows a part of the results. At the low end of the ranking the order means little.

The assay deals with SIX1 homeodomain (reference allele) (UniProt Q15475). Description: universal protein binding microarray. The note with it: Universal all-10-mer PBM (8x60K, AMADID 030236), 300 nM GST-tagged protein, Alexa Fluor 488 anti-GST; buffer, salt, pH and temperature not stated; high values mean tight binding; most listed sequences are background and not binding sites; double strand, one strand shown.
For the sequence ATATAAAA, the binding signal is 0.0381 E-score.
Consider ATACAAGC, for which the binding signal is 0.0789 E-score.
The value for CCTATCCG was 0.316 E-score.
The value for CAACTGGG was -0.0249 E-score; that for AACGAATG was -0.26 E-score.
The value for CCAACGAG was -0.14 E-score.
In the case of ACAGAGAG, the binding signal was -0.208 E-score.
The value for GCGCCATA was 0.00511 E-score.
Under AATGCGCG stands 0.129 E-score; under CGCACCAC, -0.0969 E-score; under GTAAATGA, 0.0671 E-score.
Consider CCATGCGA, for which the binding signal is 0.091 E-score.
Regarding ACCTTTGG, the binding signal was -0.12 E-score.
The value for GCAGATGA was 0.0415 E-score; that for ACTGGAGA was 0.0225 E-score; that for AAGGTCTG was -0.238 E-score.
In the case of CTTAAGCC, the binding signal is -0.17 E-score.
The value for CTCACAGA was -0.0163 E-score.
Turning to GAGGCTGC, the binding signal was -0.133 E-score.
The value for ATACGCCG was 0.277 E-score.
In the case of CGGGTGTC, the binding signal came to 0.439 E-score.
Under CTATCCAG stands 0.199 E-score.
The value for ACATTATA was 0.0123 E-score.
Under CTTGTCCA stands -0.151 E-score; under CCTTACGA, -0.16 E-score.
For the sequence CCGGCCGA, the binding signal is 0.104 E-score.
The value for CAATGCCA was -0.191 E-score; that for CTAGTTGA was -0.0577 E-score; that for TTCGTCAA was -0.157 E-score.
Take GAGCACGA: the binding signal came out at 0.0635 E-score.
The value for CCCAAGAA was 0.0576 E-score; that for TAAAGTAA was -0.137 E-score; that for ACGTCTCA was 0.322 E-score.
For CTCGTCTC, the binding signal is 0.129 E-score.
With AGTTGCGC, the binding signal is -0.296 E-score.
ACTCTCCG: the binding signal was -0.0765 E-score.
As for TCCCGTAA, the binding signal was -0.0257 E-score.
For ATATTGCC, the binding signal stood at 0.135 E-score.
The value for ACAGTTCC was -0.209 E-score; that for CTCACACC was 0.107 E-score.
Under CGATTCAC stands 0.0285 E-score; under AAAGTTAA, -0.084 E-score.
Consider GGAGCGAC, for which the binding signal is -0.149 E-score.
On to CTAATGGA, for which the binding signal was -0.0426 E-score.
As to CTTAATTA, the binding signal was -0.0491 E-score.
The value for ATTCTGTG was -0.0636 E-score.
Take ACCACCGG: the binding signal amounted to 0.0147 E-score.
Under GCTTGACA stands -0.0185 E-score; under AGAATTTA, -0.19 E-score.
The value for CAGTAGAG was -0.014 E-score; that for AACCAAAG was -0.197 E-score.
With AAAGCAGA, the binding signal was -0.124 E-score.
The value for AAAAAGGG was -0.0103 E-score; that for GTGGTAAA was -0.213 E-score.
As for CCACCGTA, the binding signal is 0.0422 E-score.
As to ACACCCAA, the binding signal was 0.331 E-score.
ACAACGCG: the binding signal is -0.0711 E-score.
Under AAGGGAAG stands 0.0184 E-score; under CAACATCC, -0.0548 E-score.
As to GGCCCCTA, the binding signal was -0.0821 E-score.
Under AAATTTGT stands -0.192 E-score; under GTCAGCCA, -0.129 E-score.
Turning to CTAACTCA, the binding signal was -0.249 E-score.
TATTAACA: the binding signal turned out to be 0.124 E-score.
As to AAGGGTTC, the binding signal amounted to 0.0168 E-score.
For the sequence GCGCAAAA, the binding signal was found to be 0.101 E-score.
As for AGATATCC, the binding signal stood at 0.442 E-score.
The value for AGGCTTGA was -0.135 E-score; that for TACCATCA was 0.111 E-score.
Turning to CCAAATTC, the binding signal was -0.146 E-score.
Under CGCATATC stands 0.414 E-score.
For ATATGGGA, the binding signal is 0.319 E-score.
Under CAGCGAGC stands 0.0528 E-score; under ACACATCA, -0.154 E-score.
Under CTTCGTAC stands -0.139 E-score; under CGGACCAG, -0.149 E-score.
As for AACCAAGA, the binding signal came out at 0.0429 E-score.
For ATACTGCG, the binding signal was found to be 0.185 E-score.
For the sequence CCACACAA, the binding signal is -0.233 E-score.
Take CGCGAGTC: the binding signal was -0.0698 E-score.
With CGTGCTGC, the binding signal is -0.329 E-score.
In the case of ATCAGAGC, the binding signal was 0.0546 E-score.
Consider CGGACTAA, for which the binding signal was -0.123 E-score.
For CCCGACTC, the binding signal is -0.016 E-score.
The value for GGTGCGCA was -0.0878 E-score; that for CATAGGGG was 0.112 E-score.
Turning to ATTCATGG, the binding signal is -0.197 E-score.
Under ACAGCGGT stands -0.149 E-score.
Take AAGGTCAG: the binding signal is -0.163 E-score.
Under GCGCTTAC stands -0.117 E-score; under ACCCTCAT, -0.0636 E-score; under AGCTGCCG, -0.134 E-score.
Turning to CCTGCTAG, the binding signal was -0.173 E-score.
For the sequence CATGCGCA, the binding signal is -0.075 E-score.
Under ATCCTACG stands 0.143 E-score; under CAAGATAA, 0.043 E-score.
Under CTAGACCA stands 0.0647 E-score; under ACCGCAAA, -0.056 E-score.
The value for ACATCAAG was -0.223 E-score; that for AACCTGTG was -0.243 E-score.
Take CCGAGTCA: the binding signal was -0.0418 E-score.
Consider GAAACGCA, for which the binding signal was -0.225 E-score.
As for AGTGAGTA, the binding signal was 0.128 E-score.
For the sequence AAAACCGC, the binding signal is -0.123 E-score.
For the sequence GGATCGTA, the binding signal was found to be 0.383 E-score.
The value for GGGTGACA was 0.0532 E-score.
Turning to AATTCGTC, the binding signal is -0.0703 E-score.
As for CTTCAAAG, the binding signal is -0.164 E-score.
Take GCAACAAA: the binding signal is -0.0851 E-score.
Under TAGACACA stands -0.00698 E-score.
Under CTTTTCAA stands -0.249 E-score; under AAAGGTGC, -0.197 E-score.
For the sequence AGGGGTCA, the binding signal is 0.119 E-score.
For the sequence ACGTTCTC, the binding signal was -0.103 E-score.
The value for GACGATCA was 0.0136 E-score; that for CGCTAAAC was -0.109 E-score; that for TATAATCA was 0.111 E-score.
Take AAATGACA: the binding signal is -0.094 E-score.
The value for GTAAGCCA was -0.0874 E-score; that for CCAGTTCC was -0.0447 E-score; that for GTGATCCA was 0.377 E-score.
Consider AGCCCAAA, for which the binding signal was -0.11 E-score.
The value for CGTCGGAA was -0.136 E-score; that for ACGTAAGT was -0.124 E-score; that for CAATAAGG was -0.0884 E-score.
The value for CCAACTAG was 0.0523 E-score; that for ATTGTTGG was -0.197 E-score; that for GAAGGTCA was -0.196 E-score.
In the case of AATGTATA, the binding signal came out at 0.259 E-score.
Under AGCATACC stands 0.138 E-score.
With TTATTCAA, the binding signal was found to be 0.0246 E-score.
The value for TCGCCCAA was -0.134 E-score.
CGTGCAAG: the binding signal is -0.243 E-score.
Under ATGGACGC stands -0.156 E-score; under AGGTAACA, -0.103 E-score; under CCATGAAA, -0.00907 E-score.
The value for ACGGCCGA was -0.23 E-score.
Under CCATACCG stands 0.0786 E-score; under GTGCCCTA, -0.15 E-score.
Consider TATGTCCA, for which the binding signal stood at 0.119 E-score.
The value for GGTTCAAA was -0.0694 E-score; that for GGGGACAA was -0.127 E-score; that for CCACCCCC was -0.124 E-score.
Under AGCCACCT stands -0.155 E-score.
The value for GACTCTAA was -0.272 E-score; that for GTACCCTA was 0.0922 E-score.
CGGACACC: the binding signal stood at 0.366 E-score.
For the sequence ATCACCAA, the binding signal is 0.232 E-score.
The value for CAAATGTG was -0.144 E-score; that for GATTTAAA was -0.154 E-score.
Regarding GCATCTAA, the binding signal was found to be 0.147 E-score.
The value for AAATACCA was 0.0826 E-score; that for CCCCGCGC was 0.135 E-score.
As to TAAAATCA, the binding signal was -0.109 E-score.
Under CATTCAGG stands -0.0745 E-score; under AGCACCTG, -0.0861 E-score.
The value for CCTCATCA was 0.0476 E-score.
Under CAGTAGTA stands 0.154 E-score.
Turning to ATCGTATC, the binding signal came out at 0.441 E-score.
The value for AAAGCAGC was -0.263 E-score.
The value for CAAAGAGG was -0.0816 E-score.
With CCCAATTC, the binding signal is 0.115 E-score.
Consider CTGTAGTA, for which the binding signal was 0.0843 E-score.
Under ATGCCTAA stands -0.0382 E-score.
With ACACGGTG, the binding signal stood at 0.147 E-score.
The value for ATTTGCTG was -0.0863 E-score.
In the case of ACGAGAAC, the binding signal was -0.0516 E-score.
Regarding AAGTAGAG, the binding signal was -0.161 E-score.
The value for GTTATCCA was 0.144 E-score; that for CGAGAATA was 0.213 E-score.
The value for CACCTGAA was 0.124 E-score.
Turning to AACACCTT, the binding signal is 0.0499 E-score.
